# The other results are listed elsewhere or left out.
# B1: chr4:106906351:106906352:-_ENSMUSG00000028617_ENSMUST00000030360|mus_hu|FALSE|FALSE (ssRNA)
# RNA: GGGAGUUCUACAGUCCGACGAUCGAGCUGGGGGCCAGAGAAAGGUCAACUUGUAUCUACUAAUCAAUAGGAAUUUAACAAGUCCCAGUCUUCCACAGCAAGACAUACAUAUUUCUGCUUUGAAGGUUGUGAAGAGUUAUUCUGCAACAGAGGAUUGAGCAUCA
# B2: chr16:46990815:46990816:-_ENSG00000069345_ENST00000563158|hu_hu|FALSE|FALSE (ssRNA)
# RNA: GGGAGUUCUACAGUCCGACGAUCUCAAAAUGAAGAUGUAAAGCUUUGUGGUUAGUUUAAAUUAUACACUCUGUAGAUACUAUACCAAUUUUAAAAGUUAUACAUAGACCAACAGAUGUCCCUCAGUUCAUCUGGAUUGAUAAGCAACAGAGGAUUGAGCAUCA
# B3: chr8:74858975:74858976:-_ENSG00000154582_ENST00000284811|hu_mus|hu_hu_hu_mus_True|38_88 (ssRNA)
# RNA: GGGAGUUCUACAGUCCGACGAUCGACCUUGUAGGUAAAAUACAUGCAUACUUUCGAUAGCACAUGUGAGGGGAUCUCUCUAAAAUUGACCUCGUUGGUUUCGUUCUCAGCAAACUGACCUGGACCACUCAACAUAGCCUUUAUCAACAGAGGAUUGAGCAUCA
# B4: chrX:98862621:98862622:+_ENSMUSG00000034160_ENSMUST00000044475|mus_hu|mus_mus_mus_hu_False|48_58 (ssRNA)
# RNA: GGGAGUUCUACAGUCCGACGAUCCUGCAUCUCCUUUAGAGUGUUUCCCAUAUUAGAGUAGGCAUCAGCAAAGGUAGGACUAAUUCGUAUGGCUUCUUUAUAAUGCAUCAGAGCUUCCUGCAGUUUUCCCUGCUGCUGCAGUACCAACAGAGGAUUGAGCAUCA
# B5: chr7:99638656:99638657:+_ENSG00000106261_ENST00000324306|hu_hu|motif|central (ssRNA)
# RNA: GGGAGUUCUACAGUCCGACGAUCAGCCCUCUAUAUAGAUUUAGGCUUAUGCUGACCUCGUUGUAAAAUCUGUAUUUAACGGAAAGUUAAUAAAAAUACAUAUGUUCAUUUUAAAAUAAUUACUGAUUUUGCUUGGCUAUCCCACAACAGAGGAUUGAGCAUCA
# B6: chr15:55677894:55677895:-_ENSG00000260916_ENST00000569205|hu_mus|FALSE|FALSE (ssRNA)
# RNA: GGGAGUUCUACAGUCCGACGAUCGGAACAUUCUAGAGUCAGUCCACAGUUGUCACUGGCUGUGGCAGAAUUCACGAUCUCUAUAUCAGAACCCUCAUGAUUGAUGACAGUCCAGCCACAAGAUGAGUCGCUGUCGCUGGAACUCAACAGAGGAUUGAGCAUCA
# B7: chr1:66459500:66459501:+_ENSMUSG00000015222_ENSMUST00000114013|mus_hu|FALSE|FALSE (ssRNA)
# RNA: GGGAGUUCUACAGUCCGACGAUCUAAAAAGGCAGGGGCAAAGGGCGAUGUUUCUGUAACUAUUUCAUUCUUCAUGACAUCUAAAGGAAGAGUGAAGCUUCCCCCUUGAAAGGGACUUGGCAUGGGAGAAUCAAACUGUUUCCCCAACAGAGGAUUGAGCAUCA
# B8: chr1:109605286:109605287:-_ENSG00000197780_ENST00000461096|hu_mus|hu_hu_hu_mus_True|1_8 (ssRNA)
# RNA: GGGAGUUCUACAGUCCGACGAUCAAGUUUCAGAGUAACAUUCAGUAACCUCUUUAAAUGCAAUUAUCCUUAUUAUAAGCUAAGCAGAAUAAUAAUUUAAUACCGUAAGUGAACUACACACAAAGCCGUGUAUUCAGAACUACACAACAGAGGAUUGAGCAUCA
# B9: chr4:148551591:148551592:-_ENSMUSG00000063077_ENSMUST00000060537|mus_hu|mus_mus_mus_hu_False|28_108 (ssRNA)
# RNA: GGGAGUUCUACAGUCCGACGAUCACCUUACAAAAUUAAAUAUCCCUGUAAAUUAGACAAUAAGCAGCAGGCAACAAAGUCUUUGCUUUGGAAUAUGUGCCAGGAAAAAUCAUGUUUUUUUUAGAUCUCAAGAGACAGUUCACACAACAGAGGAUUGAGCAUCA
# B10: chr2:121837063:121837064:+_ENSMUSG00000033411_ENSMUST00000110578|mus_mus|motif|central (ssRNA)
# RNA: GGGAGUUCUACAGUCCGACGAUCAUAUUAGUCAUUCAUAUAUUCUUAACUACCCAGUCUCUUGAUUUUUGAAGAUUUCACCGGCAGUAGAAUAUUACAGAACAAAAUAUAAAUGCAUCUUUUAAAUGAAACUUAACAUGGACUCAACAGAGGAUUGAGCAUCA
# B11: chr14:72968675:72968676:-_ENSMUSG00000033487_ENSMUST00000089017|mus_mus|FALSE|FALSE (ssRNA)
# RNA: GGGAGUUCUACAGUCCGACGAUCGUACAGGACCUCUUCACUAAAAUCACUUACACCAUAGUCAUUUUUGGCUGAUAAUCUAAAUUUACAACCCAUUGCUGGUGAGAGUUUGGUAAUUUUAAAUUGCUUCUGUGAGCCCAUGUACAACAGAGGAUUGAGCAUCA
# B12: chr7:7679991:7679992:-_ENSG00000106399_ENST00000396682|hu_hu|hu_hu_hu_mus_False|78_98 (ssRNA)
# RNA: GGGAGUUCUACAGUCCGACGAUCUGGGAUGAAUCUUUUCCAGCCUCCCCACGAAGCAGACAGGCUUGUCGAUAUACUGUGGUAACAUGCUGGCGUUGACGCGCGCUUUGGGGAGCUGCAUUAUGUCCUCCAUGAUUCUGCCGCCAACAGAGGAUUGAGCAUCA
# B13: chr5:37310712:37310713:-_ENSG00000113569_ENST00000381843|hu_mus|FALSE|FALSE (ssRNA)
# RNA: GGGAGUUCUACAGUCCGACGAUCACAAACUGCAUCGUCUGUGCUAUACAGAAGCGGACAGGUGUCCUGCAGAUGUAAGCUAAUGCCGUCUACGGCGGCGUUGUCUCUGAUGUAGCAGUUGAUAAGAGAAGCAAUUAAUGCUCCCAACAGAGGAUUGAGCAUCA
# B14: chr2:202488911:202488912:-_ENSG00000155755_ENST00000286196|hu_mus|hu_hu_hu_mus_False|28_38 (ssRNA)
# RNA: GGGAGUUCUACAGUCCGACGAUCAUUGAAACAUUUUUCAUAAUCUCCAGUAGCAUUUCAGCAUUAUGUAACAAAAGCUCAAUUGUAAAUACAUGUAUAUACAUCUUAUAAAAAUACAAACACGAGUGGGGAGCGCAGGCGCCACAACAGAGGAUUGAGCAUCA
# B15: chr7:135612270:135612271:-_ENSG00000105887_ENST00000393085|hu_mus|hu_hu_hu_mus_False|48_108 (ssRNA)
# RNA: GGGAGUUCUACAGUCCGACGAUCGUUUCUGAGAUGUAUGUUAAAUAGUACUUCAGUGGAAAACAAAACUUAACCUUUUAUUAAUGCAUGUAGUACCAAAAGCAGACAUUUUAGCUUCAUUUAUUCAAAAAUAUUAACAUUAAGCAACAGAGGAUUGAGCAUCA
# B16: chr2:32088997:32088998:+_ENSMUSG00000039262_ENSMUST00000036691|mus_hu|FALSE|FALSE (ssRNA)
# RNA: GGGAGUUCUACAGUCCGACGAUCUUUUCCCCCUUAAGGAACCUAGAGCCAGAGUGUCUAUGAAUUCCAAGUUUGAAAACAAUAUGAAUGUUUAAAAAAAAACAAAAAACGCUGUGGGGAGAAGCCAACAGUUAAGAAAACCAACAACAGAGGAUUGAGCAUCA
# B17: chr2:202488911:202488912:-_ENSG00000155755_ENST00000286196|hu_mus|hu_hu_hu_mus_False|38_78 (ssRNA)
# RNA: GGGAGUUCUACAGUCCGACGAUCAUUGAAACAUUUUUCAUAAUCUCCAGUAGCAUUCAGUAUUAUAGUAACAAAAGCUCAAUUGUAAAUACAUGUAUAUACAUCUUAUACACUUAAAAACACGAGUGGGGAGCGCAGGCGCCACAACAGAGGAUUGAGCAUCA
# B18: chr1:149898447:149898448:-_ENSG00000143368_ENST00000271628|hu_mus|FALSE|FALSE (ssRNA)
# RNA: GGGAGUUCUACAGUCCGACGAUCGAGUCUUUCAGCUGCUGAGCCAUGGCGUUCACCCUUAGAGUCCUUCUUGAAGGCAUAAGACACAGUGAUAGGACGGUUACACAGGUACUGCCCGUUCAUGGCCUCAAUUGCUGCAUCCGACAACAGAGGAUUGAGCAUCA
# B19: chr3:148802587:148802588:-_ENSG00000071794_ENST00000310053|hu_mus|hu_hu_hu_mus_False|68_98 (ssRNA)
# RNA: GGGAGUUCUACAGUCCGACGAUCUCCAACAACUUGUCCUCUCAAACUUCCAAAUAAAACCAAAUCUACUUCUUCAUCACUCGUUAGGAAGUCAUCUGGAGGAAUAAUGUCUUGGAAUUCAAAAUGUGGCAAGAAAGUUGAGUACAACAGAGGAUUGAGCAUCA
# B20: 147807452_147813048_2823_CDS_ENSG00000145868_ENST00000340253|human|control|control (ssRNA)
# RNA: GGGAGUUCUACAGUCCGACGAUCAGUGGAUUUAUCUGCUGUCCGCUUCCGUUUCAUGGCGUGACGUGGCUUUGUUUUGGCUACUUCUGACUCAGAUACCAGCAGUACAUGGGACAGUCUGCUCCUGGCCCUGGUUAGGGGCCUCAACAGAGGAUUGAGCAUCA
# B21: chr5:144935201:144935202:+_ENSMUSG00000038970_ENSMUST00000041804|mus_mus|FALSE|FALSE (ssRNA)
# RNA: GGGAGUUCUACAGUCCGACGAUCCAUUAGAUCAAAUAUUUUUUGGUGACUGGGCAGGUCAUCUGCUUUGUCAAGGUCACUAAAUAGGUUGAAAGGGCUCCCAGGGAUGCUGGUAGCACGUGAGUCCUCGGUAGAGCUGGCUUCCAACAGAGGAUUGAGCAUCA
# B22: chr6:38652254:38652255:-_ENSG00000124767_ENST00000373365|hu_hu|hu_hu_hu_mus_False|18_88 (ssRNA)
# RNA: GGGAGUUCUACAGUCCGACGAUCCGAGAACUUCAUAGCAGGGAAGUCACAUUUUUGCAGGAGGGUCAGUCCAAGAACCCUCGUAUAAAAAUCCAGGGACUUCUUAGGAUCCUUAAUUCGUAGCAUGGUUUGCUGCAGUAGAAACAACAGAGGAUUGAGCAUCA
# Target: T1, UNK ZnF1-3 (human, UniProt Q9C0B0 31-174)
# T1 sequence: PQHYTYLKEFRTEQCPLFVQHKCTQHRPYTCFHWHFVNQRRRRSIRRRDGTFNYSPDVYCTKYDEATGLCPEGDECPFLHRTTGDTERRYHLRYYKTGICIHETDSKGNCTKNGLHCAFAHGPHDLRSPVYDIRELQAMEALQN
# Test: nsRBNS (natural sequence RNA bind-n-seq); RBNS binding buffer (assumed for nsRBNS): 25 mM Tris pH 7.5, 150 mM KCl, 3 mM MgCl2, 0.01% Triton X-100, 500 ug/ml BSA, 20 U/ml SUPERase-In, 4 C; UNK is unkempt and MSI1 is Musashi-1; names of the RNAs are library labels; protein concentration not given here; high values mean tight binding
row,Binder,binding signal
1,B1,2.14 enrichment R
2,B2,0.542 enrichment R
3,B3,0.75 enrichment R
4,B4,1.18 enrichment R
5,B5,2.47 enrichment R
6,B6,0.561 enrichment R
7,B7,0.754 enrichment R
8,B8,0.426 enrichment R
9,B9,1.18 enrichment R
10,B10,0.615 enrichment R
11,B11,0.984 enrichment R
12,B12,0.674 enrichment R
13,B13,0.48 enrichment R
14,B14,1.11 enrichment R
15,B15,1.07 enrichment R
16,B16,1.79 enrichment R
17,B17,1.27 enrichment R
18,B18,0.555 enrichment R
19,B19,0.988 enrichment R
20,B20,0.591 enrichment R
21,B21,0.749 enrichment R
22,B22,0.814 enrichment R

# Source: article PMC12136788
